# Measurements published in PubChem BioAssay AID652025 (National Center for Advancing Translational Sciences (NCATS), 2013).
# Hit rate of the full screen: of about 360,000 compounds, about 240 (0.067%) were called active. The shares of active, inactive and inconclusive entries below differ from those in the screen. No stated cut-off is given here; in the data, active means activation above about 50%; inconclusive means mostly about 30% to 49%; inactive means weaker than that.
# Assay: qHTS of IL-2 Activators; further: 0% is about no effect
# Conditions: IL-2 activation reporter assay, cell-based qHTS; active compounds read high; in transgenic mouse T cells; stimulated with anti-CD3/CD4/CD28 beads
# Source text: The adaptive immune response against any infectious agent begins with the activation of an antigen specific T cell. This relatively rare and inert ("naive") T cell undergoes a massive proliferative expansion and differentiation process to generate sufficient number of potent pathogen-specific effector T cells. The effector T cells fight the infection by making cytokines and helping other cells to become fully armed as well. If any naive T cell has antigen receptors (TCRs) that can be activated by self peptides, then a variety of regulatory mechanisms kick in to prevent this cell from performing to its full potential. These processes collectively constitute the phenomenon of immunological tolerance and their failure leads to autoimmunity. One arm of tolerance involves generation of biochemical negative feedback downstream of the TCR (tuning). This is especially relevant to self antigens present in the body over long periods of time (chronic), which form the bulk of our proteome. The negative feedback serves to tune the TCR signaling, such that the ambient antigenic stimulation is nullified intracellularly. Unfortunately, this critical machinery serves as a target for chronic viral, bacterial and parasitic infections (as well as tumors), which can evade a robust immune response, simply by allowing T cells to tune down their signaling to pathogen or malignancy derived antigens. As such, disrupting the tuning in such cases would allow the tolerant T cell to function again and deliver a robust effector response.
# If a therapeutic can restore responsiveness to the tuned down T cell, even for a short time, they could combat the pathogen without any additional immunization. To that end, we have developed a sensitive HTS T cell based assay based on IL-2. This assay will be screened against the Molecular Libraries Small Molecule Repository (MLSMR) to find small molecules that could elicit this response.
# NIH Chemical Genomics Center [NCGC]
# NIH Molecular Libraries Probe Centers Network [MLPCN]
# Assay Submitter (PI): Ron Schwartz, NIAID
# 4 microL (750 cells/well) of unstimulated transgenic mouse T cells (columns 1-3,5-48) are dispensed into Aurora LoBase, black clear-bottom 1536-well assay plates; column 4 receives an identical concentration of transgenic memory T cells as a non-tolerant control. Compounds are then transferred via Kalypsys pin tool equipped with 1536-pin array (10 nL slotted pins, V&P Scientific, San Diego, CA). Following addition of compound and a 60 minute incubation, 1 microL of bead stimulation solution ((0.04 micron Fluospheres (Life technologies, CA) coated with 10ug/ml each anti-CD3 and anti-CD4 (clones 2C11 and GK1.5, BD Biosciences, CA) and mixed with 1ug/ml anti-CD28 (clone PV-1, BD biosciences, CA)). columns 2-48) is added to stimulate the IL-2 response pathway; media is instead added to column 1 as an unstimulated control, while PMA/ionomycin (Sigma Aldrich, MO) is added to column 3 as a control for IL-2 tolerance bypass. The plates are then incubated at 37 degrees C for 18 hours. EGFP and DsRed signal are then detected using an Acumen eX3 Explorer fluorescent plate cytometer. All cells are dispensed in cell media containing EHAA (Quality Biologicals, MD), RPMI (Quality Biologicals, MD), Glutamine (Life Technologies, CA), Penicillin/Streptomycin (Quality Biologicals, MD), 2-ME (Sigma Aldrich, MO) and 10% FBS (Gemini Bioproducts, CA) .
row,Structure (SMILES),activation
1,COc1ccc(NC(=O)CN(C)S(=O)(=O)c2ccc(C)cc2)c([N+](=O)[O-])c1,inconclusive: 30.6%
2,Cc1cc(C(=O)Nc2ccc3c(c2)CCC3)c2ccccc2n1,inconclusive: 39.4%
3,O=c1c2c(-c3ccccc3)csc2ncn1/N=C/c1c2ccccc2cc2ccccc12,inconclusive: 36.1%
4,O=C1CCc2cc(S(=O)(=O)NCc3ccc(Cl)cc3)cc3c2N1CC3,inactive: -3.74%
5,CC(C)OCCCN(C)C1CCN(S(=O)(=O)c2csc(C(N)=O)c2)CC1,inconclusive: 39.5%
6,O=C(Nc1ccc2[nH]ncc2c1)c1ccc(F)cc1,inactive: -2.94%
7,Cc1ccc2cc(CN(CC(C)C)S(=O)(=O)c3cccc4nonc34)c(=O)[nH]c2c1,active: 65.1%
8,O=c1cc(-c2ccc(O)cc2)oc2c1ccc1ccccc12,inactive: -0.641%
9,COc1ccc(C(=O)Nc2cccc(-c3ccc(N4CCOCC4)nn3)c2)cc1OC,inactive: -4.97%
10,N#Cc1ccccc1S(=O)(=O)N1CCN(C(=O)CN2CCCSc3ccccc32)CC1,inactive: 0.0536%
11,CN(C)c1ccc(/C=C/C(=O)c2cccc(Br)c2)cc1,inconclusive: 49.6%
12,Cc1ccc(C)c(N2N=C(C(=O)Nc3ccccc3N3CCCC3)CCC2=O)c1,inconclusive: 34.6%
13,O=C(COc1ncnc2ccccc12)c1ccc2c(c1)OCCO2,inactive: 0.0599%
14,O=[N+]([O-])c1cccc(CNc2ccc3c(c2)CCC3)c1,inactive: -0.278%
15,CCOC(=O)N1CCN(c2nc3ccccc3nc2C(C#N)S(=O)(=O)c2ccc(C)cc2)CC1 (stereo not drawn),inconclusive: 33.2%
16,N#CC(C#N)=Cc1cnc(N2CCN(c3ccccc3)CC2)s1,inconclusive: 34.5%
17,CCN(CC)CCCNc1ccc2ncn3c4ccc(O)cc4c(=O)c1c23,active: 124%
18,CCOC(=O)c1c(C)oc2c1c(C=NCC1CCCO1)c(O)c1ccccc12 (stereo not drawn),inconclusive: 30.5%
19,CCCCCN(C(=O)CCC(=O)OCC(=O)c1ccc(C(C)CC)cc1)c1c(N)n(CCCC)c(=O)[nH]c1=O (stereo not drawn),inactive: -4.04%
20,COc1ccc(-c2ccc3c(c2)S(=O)(=O)c2cccc(C(=O)NCc4cccc(OC(F)(F)F)c4)c2C3=O)cc1OC,inconclusive: 45%
21,N#C/C(=C\c1ccc(O)cc1)c1nc2ccccc2o1,active: 57.3%
22,CCN(CC)C(=O)Cn1c(=O)c2ccccc2n2c(=S)sc(-c3cccc(C)c3)c12,active: 93.5%
23,Cc1ccc(NC(=O)c2ccc(NCCCN3CCC(C)CC3)c([N+](=O)[O-])c2)cc1F,inconclusive: 36.8%
24,CCc1nnc(NC(=O)c2cc(S(=O)(=O)N(CC)CC)ccc2Cl)s1,inconclusive: 41.1%
25,COCCn1c(C)cc(C(=O)COC(=O)c2cncc(Br)c2)c1C,inactive: -0.242%
26,O=[N+]([O-])c1cc2oc3c(c2c(C=NCc2ccccc2)c1O)CCCC3,inconclusive: 32.1%
27,COc1cccc(/C(O)=C/c2nc3ccc(C(=O)NCCc4ccc(Cl)cc4)cc3[nH]c2=O)c1,inconclusive: 40.1%

row,Structure (SMILES),activation
1,O=C(Cc1ccc(F)cc1)Nc1nc(-c2ccc(F)c(F)c2)cs1,inactive: -0.765%
2,O=C1C2Sc3[nH]c(=O)sc3C(c3ccccc3)C2C(=O)N1c1ccc(Cl)cc1 (stereo not drawn),inconclusive: 43.2%
3,O=C1C=C(c2cccc3c2Oc2ccccc2S3)C[C@@H](c2ccc(Cl)cc2)C1,inactive: -0.346%
4,O=C(CCN1C(=O)/C(=C/c2cccs2)SC1=S)Nc1ccccn1,inconclusive: 49.8%
5,CNC(=O)c1c(NC(=O)c2ccc(S(=O)(=O)N(C)c3ccccc3)cc2)sc2c1CCN(C(C)C)C2,active: 62.1%
6,Cc1cc([N+](=O)[O-])ccc1-c1ccc(/C=N/NC(=O)c2ccc(Br)o2)o1,inconclusive: 35.4%
7,COC(=O)CSc1nc2cc(OC)ccc2cc1C#N,inconclusive: 45.5%
8,CCOc1ccc(S(=O)(=O)Nc2nc3ccccc3nc2-n2ccc(=NC(=O)c3cccs3)cc2)cc1,inconclusive: 42.4%
9,COc1ccc(CN(C(=O)CSc2nnc(-c3ccc(F)cc3)o2)c2ccc(F)cc2)cc1,inconclusive: 47%
10,N#C/C(=C\c1ccc(N2CCOCC2)o1)C(=O)NCC1CCCO1 (stereo not drawn),inactive: -3.37%
11,O=C1NC(=O)/C(=C\c2ccccc2OCc2cccc([N+](=O)[O-])c2)N1,inactive: -1.2%
12,Cc1ccc(/C=N/c2sc(Cc3ccccc3)c(C)c2C(N)=O)o1,inconclusive: 34.4%
13,Cc1ccc(/C=C2/NC(=O)N(Cc3ccccc3)C2=O)s1,active: 159%
14,COc1cc(C2Nc3ccccc3C(=O)N2c2ccccc2OC)ccc1O (stereo not drawn),inactive: 0.43%
15,Cc1cccn2c(=O)c3cc(C(=O)NC4CCCC4)c(=N)n(C4CCCCC4)c3nc12,inconclusive: 37%
16,Nc1cc(Nc2ccccc2)c2nonc2c1[N+](=O)[O-],inconclusive: 45.1%
17,N#Cc1ccccc1Cn1cc(/C=N/Nc2ccc([N+](=O)[O-])cn2)c2ccccc21,active: 74%
18,COc1cc(OC)cc(-c2nnc(NC(=O)Cc3ccc(F)cc3)o2)c1,inconclusive: 40%
19,Cc1cc2c(c(=O)o1)C(c1ccc([N+](=O)[O-])o1)C(C#N)=C(N)O2 (stereo not drawn),inconclusive: 32.8%
20,Cc1c(C=C(C#N)c2ccc([N+](=O)[O-])cc2)c(=O)n(-c2ccccc2)n1C,inconclusive: 35.9%
21,COc1ccc(C(=O)c2sc3nc(C)cc(-c4cccs4)c3c2N)cc1OC,active: 550%
22,Cc1ccc(CNC(=O)c2cccc3c2C(=O)c2ccc(N4CCCCC4)cc2S3(=O)=O)cc1,inconclusive: 38.4%
23,CCCCCCNC(=O)C(C#N)c1nc2ccccc2nc1N1CCCC1 (stereo not drawn),inconclusive: 31.7%
24,Cc1cc(N2C(=O)C(O)=C(C(=O)c3ccco3)C2c2ccc([N+](=O)[O-])cc2)no1 (stereo not drawn),inactive: -1.31%
25,COc1cc2c3nnc(-c4ccccc4)c-3cn(Cc3ccccc3F)c2cc1OC,active: 176%
26,COc1cc(NC(=S)Nc2ccc(Br)cc2Cl)c(OC)cc1Cl,inconclusive: 39.7%
